For data set [1], the system named is human mammary squamous cancer cell HCC1806. As to conditions: cell binding, FACS Median PE.
The test system of data set [2] is Human breast squamous carcinoma cell line HCC1806. In words: Efficacy of different doses of ADCs in HCC1806 model. The format is in vivo. The settings on record: HCC1806 mouse; for TGI (%): VP27.
For a further data set, the target named is CHO-S-rat B7-H3 (Rattus norvegicus, UniProt Q7TPB4). The settings on record: cell binding, FACS Median PE.
The subject of data set [3] is Human gastric cancer cells NCI-N87. Kind of data set: Efficacy of different ADCs in NCI-N87 model. The format is in vivo. As to conditions: NCI-N87 mouse, QW, twice; for TGI (%): VP42; for VP42 (mm^3, mean±SEM): tumor volume.
In another data set the target is T1, rat B7-H3-his (Rattus norvegicus, UniProt Q7TPB4).
T1 construct: His
T1 sequence (Q7TPB4 29-316): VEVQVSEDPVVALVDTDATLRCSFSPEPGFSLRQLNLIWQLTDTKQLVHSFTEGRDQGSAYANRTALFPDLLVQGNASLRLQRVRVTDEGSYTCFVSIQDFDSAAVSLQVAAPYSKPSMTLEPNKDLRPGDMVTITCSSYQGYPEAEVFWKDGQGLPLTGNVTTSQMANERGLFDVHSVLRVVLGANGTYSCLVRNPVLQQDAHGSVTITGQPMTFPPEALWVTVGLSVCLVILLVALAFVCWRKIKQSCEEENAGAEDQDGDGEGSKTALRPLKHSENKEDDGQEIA
Kind of data set: Dynamic affinity by ForteBio (BLI). It is filed as binding. As to conditions: Protein A sensor, 1:1 global fitting. On the technique in general: BLI is a label-free optical method that tracks binding on a fibre tip over time.

Data set [4] is described as follows: Repeated dose toxicity test. The format is in vivo. As to conditions: cynomolgus monkeys.
Another data set addresses CHO-S-human B7-H3-4Ig (Homo sapiens, UniProt Q5ZPR3). The settings on record: cell binding, FACS Median PE.
Data set [5] concerns human colon cancer cell HT29. In words: Cell affinity by flow cytometry. As to conditions: cell binding, FACS Median PE.
Data set [6] has as its system human breast squamous cell carcinoma cell HCC1806. In words: Tumor growth inhibition in subcutaneous HCC1806 mouse CDX model. The format is in vivo, Balb/cNude mice. As to conditions: 1 dose on Day 0.
The nature of data set [7]: Hydrophilicity detection (TSKgel Butyl-NPR column). It is filed as physicochemical. As to conditions: (retention time of sample - hydrophilic control)/(hydrophobic control - hydrophilic control); smaller = more hydrophilic.
The test system of data set [8] is human non-small cell lung cancer cell HCC827. Kind of data set: Cell affinity by flow cytometry. As to conditions: cell binding, FACS Median PE. A general note: In flow cytometry, cells or beads pass a laser one at a time.
The next data set concerns the target CHO-S-human B7-H3-2Ig (Homo sapiens, UniProt Q5ZPR3). The settings on record: cell binding, FACS Median PE.
For data set [9], the system named is human mammary squamous carcinoma cell HCC1806. The settings on record: endocytosis, pHrodo, 24 h, Median YL-1H.
In data set [10] the test system is human gastric cancer cell NCI-N87. The settings on record: endocytosis, pHrodo, 24 h, Median YL-1H.
The target of the next data set is T2, CD32a (Homo sapiens, UniProt P12318).
T2 sequence (P12318 34-317): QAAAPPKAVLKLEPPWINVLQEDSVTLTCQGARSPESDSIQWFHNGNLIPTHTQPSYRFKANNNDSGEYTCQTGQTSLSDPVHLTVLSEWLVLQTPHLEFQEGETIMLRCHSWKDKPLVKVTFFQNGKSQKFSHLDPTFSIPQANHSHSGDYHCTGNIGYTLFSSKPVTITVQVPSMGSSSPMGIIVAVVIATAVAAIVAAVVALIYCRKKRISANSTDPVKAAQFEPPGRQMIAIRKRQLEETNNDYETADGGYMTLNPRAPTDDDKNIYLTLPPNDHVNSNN
In words: Binding affinity to Fc receptors by ForteBio. As to conditions: SA sensor, biotinylated receptor, 1:1 fitting.

On the set-up of data set [11]: species or system cynomolgus monkeys. The settings on record: cynomolgus monkey, in vivo, iv, 50 mg/kg.
The subject of data set [12] is human gastric cancer cell NCI-N87. As to conditions: cell binding, FACS Median PE.
The test system of another data set is CHO-S-monkey B7-H3. As to conditions: cell binding, FACS Median PE.
In data set [13] the test system is Human breast squamous carcinoma cell line HCC1806. In words: In vivo efficacy of different conjugates of 2#8890 in HCC1806 model. The settings on record: HCC1806 mouse; for TGI (%): VP52; for VP52(mm^3, mean±SEM): tumor volume.
The test system of data set [14] is Human colon cancer cells HT29. Kind of data set: In vivo efficacy in HT29 model. As to conditions: HT29 tumor-bearing mouse, 10 mg/kg i.v., QW, twice.
For data set [15], the system named is Human breast squamous carcinoma cell line HCC1806. Kind of data set: In vivo efficacy of different ADCs in HCC1806 model. As to conditions: HCC1806 tumor-bearing mouse, 10 mg/kg i.v. once.
Setting [16] is: i.v. 30 mg/kg QW x2, then 50 mg/kg QW x2.
Where [17] appears, read: 10 mg/kg i.v. once (DAR4 group).

Where two headings read alike, the source gives them in different places. Marks after values point to notes of the source that are not given here.

Sequence of CHO-S-human B7-H3-4Ig (Q5ZPR3 29-534): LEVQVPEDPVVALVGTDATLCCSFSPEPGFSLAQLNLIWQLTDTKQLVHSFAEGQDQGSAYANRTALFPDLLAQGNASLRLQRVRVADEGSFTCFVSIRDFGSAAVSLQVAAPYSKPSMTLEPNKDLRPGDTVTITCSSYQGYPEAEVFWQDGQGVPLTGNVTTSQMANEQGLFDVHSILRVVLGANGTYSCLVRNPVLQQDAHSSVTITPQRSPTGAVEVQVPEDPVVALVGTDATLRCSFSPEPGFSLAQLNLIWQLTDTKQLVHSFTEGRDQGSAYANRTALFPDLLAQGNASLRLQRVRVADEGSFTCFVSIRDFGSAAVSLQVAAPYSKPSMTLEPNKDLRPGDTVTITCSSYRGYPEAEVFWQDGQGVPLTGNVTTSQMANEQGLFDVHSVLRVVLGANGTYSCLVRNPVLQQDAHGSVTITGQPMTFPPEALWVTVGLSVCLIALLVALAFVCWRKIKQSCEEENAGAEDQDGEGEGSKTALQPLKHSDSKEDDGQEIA
Sequence of CHO-S-human B7-H3-2Ig (Q5ZPR3 29-316 isoform Q5ZPR3-2 limits assumed): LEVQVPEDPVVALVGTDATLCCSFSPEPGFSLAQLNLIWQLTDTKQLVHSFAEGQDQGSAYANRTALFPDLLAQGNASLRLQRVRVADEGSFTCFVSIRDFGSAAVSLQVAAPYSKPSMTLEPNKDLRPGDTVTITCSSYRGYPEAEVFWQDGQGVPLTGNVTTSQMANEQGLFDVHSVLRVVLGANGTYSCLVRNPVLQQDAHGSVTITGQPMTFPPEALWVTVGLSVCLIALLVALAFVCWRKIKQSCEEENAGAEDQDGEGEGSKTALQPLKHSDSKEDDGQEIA

B1: ADC 9 (conjugate)
heavy: QVQLQESGPGLVQPSGTLSLTCAVSGGSDSSTNWWTWVRQSPGQGLEWIGEISPIGFTSYSPSLRSRVTISVDKSKTQFSLKLSSVTAADTAVYYCARDRLYFAFWGQGTLVTVSSASTKGPSVFPLAPSSKSTSGGTAALGCLVKDYFPEPVTVSWNSGALTSGVHTFPAVLQSSGLYSLSSVVTVPSSSLGTQTYICNVNHKPSNTKVDKKV[human IgG1 Fc with L234A L235A G237A (EU numbers) left out here]
light: EIVMTQSPATLSVSPGERATLSCRASQSVSSNLAWYQQKPGQAPRLLIYGASTRATGIPDRFSGSGSGTEFTLTISSLESEDFAVYYCQQYNNWPITFGQGTRLEIKRTVAAPSVFIFPPSDEQLKSGTASVVCLLNNFYPREAKVQWKVDNALQSGNSQESVTEQDSKDSTYSLSSTLTLSKADYEKHKVYACEVTHQGLSSPVTKSFNRGEC
With B1, the “EC50(ng/ml) HCC1806” value in data set [1] was found to be 7.264 ng/mL. In data set [2] (0.5 mg/kg i.v. once), the “TGI (%)” value was 53.66%. Also, in data set [2] (5 mg/kg i.v. once), the “TGI (%)” value was 156.56* * %. For the same molecule, the “VP27 (mm^3, mean±SEM)” value in [2] (tumor volume, 5 mg/kg i.v. once) amounted to 75.12±27.55 mm^3. The “EC50 (ng/ml) CHOS-rat B7-H3” value with CHO-S-rat B7-H3 was “Not bond”. In addition, in [3] (5 mg/kg i.v.), the “TGI (%)” value is on record as 71.16** % and the “VP42 (mm^3, mean±SEM)” value came out at 474.09±121.07 mm^3. The “Rat B7-H3-his KD (M)” value with rat B7-H3-his was “Not bond”. Further, the “findings during the recovery period” value in [4] (after 30 mg/kg QW x2 and 50 mg/kg QW x2) is “local pigmentation and slight hair loss were also observed, and other changes showed a recovery trend”. Further, in [4] (setting [16]), the “findings during the administration period” value is on record as “loss of appetite”; the “haematology changes in female monkeys” value was “WBC, NEUT, LYM and MONO decreased and FBG increased”; the “haematology changes in male monkeys” value was “FBG increased and RBC, HGB and HCT decreased”. For the same molecule, the “highest no serious toxicity dose (HNSTD)” value in [4] (i.v. 30 mg/kg once a week x2, then 50 mg/kg once a week x2) was 50 mg/kg. The “EC50 (ng/ml) CHOS-B7-H3-4Ig” value in the data set with CHO-S-human B7-H3-4Ig turned out to be 45.96 ng/mL. The “EC50 (ng/ml) HT29” value in data set [5] is 5.656 ng/mL. Besides, in data set [6] (Day 14, 3 mg/kg i.v.), the “T/C (%)” value came out at 15.42%, the “TGI (%)” value amounted to 98.50% and the “Tumor volume (mm^3) (x±SEM)” value stood at 201.74±45.01 mm^3. The molecule also returned a Hydrophobicity value in data set [7] of 0.99. In addition, in data set [8], the “EC50 (ng/ml) HCC827” value stood at 13.05 ng/mL. In the data set with CHO-S-human B7-H3-2Ig, the “EC50 (ng/ml) CHOS-B7-H3-2Ig” value was found to be 41.34 ng/mL. The “EC50(ng/ml) HCC1806” value in data set [9] was determined as 18.94 ng/mL. Also, the “EC50(ng/ml) NCI-N87” value in data set [10] turned out to be 8.649 ng/mL. The “KD (M) CD32a” value with CD32a is reported as “Not bond”. The “CL F obs” value in data set [11] stood at 422.692 L/h/kg. The “EC50(ng/ml) NCI-N87” value in data set [12] stood at 5.953 ng/mL. In addition, the “EC50 (ng/ml) CHOS-monkey B7-H3” value in the data set with CHO-S-monkey B7-H3 worked out at 40.94 ng/mL.

B2: ADC 17 (conjugate)
heavy: QVQLQESGPGLVQPSGTLSLTCAVSGGSDSSTNWWTWVRQSPGQGLEWIGEISPIGFTSYSPSLRSRVTISVDKSKTQFSLKLSSVTAADTAVYYCARDRLYFAFWGQGTLVTVSSASTKGPSVFPLAPSSKSTSGGTAALGCLVKDYFPEPVTVSWNSGALTSGVHTFPAVLQSSGLYSLSSVVTVPSSSLGTQTYICNVNHKPSNTKVDKKV[human IgG1 Fc with L234A L235A G237A (EU numbers) left out here]
light: EIVMTQSPATLSVSPGERATLSCRASQSVSSNLAWYQQKPGQAPRLLIYGASTRATGIPDRFSGSGSGTEFTLTISSLESEDFAVYYCQQYNNWPITFGQGTRLEIKRTVAAPSVFIFPPSDEQLKSGTASVVCLLNNFYPREAKVQWKVDNALQSGNSQESVTEQDSKDSTYSLSSTLTLSKADYEKHKVYACEVTHQGLSSPVTKSFNRGEC
In the case of B2, the “Rat B7-H3-his KD (M)” value with rat B7-H3-his was “Not bond”. In [5], the “EC50 (ng/ml) HT29” value worked out at 3.213 ng/mL. In data set [6] (Day 14, 3.32 mg/kg i.v.), the “T/C (%)” value is 25.40%, the “TGI (%)” value stood at 86.69% and the “Tumor volume (mm^3) (x±SEM)” value is listed as 329.35±72.16 mm^3. Moreover, the “EC50 (ng/ml) HCC827” value in data set [8] was found to be 8.054 ng/mL.

B3: ADC 3 (conjugate)
heavy: QVQLQESGPGLVQPSGTLSLTCAVSGGSDSSTNWWTWVRQSPGQGLEWIGEISPIGFTSYSPSLRSRVTISVDKSKTQFSLKLSSVTAADTAVYYCARDRLYFAFWGQGTLVTVSSASTKGPSVFPLAPSSKSTSGGTAALGCLVKDYFPEPVTVSWNSGALTSGVHTFPAVLQSSGLYSLSSVVTVPSSSLGTQTYICNVNHKPSNTKVDKKV[human IgG1 Fc with L234A L235A G237A (EU numbers) left out here]
light: EIVMTQSPATLSVSPGERATLSCRASQSVSSNLAWYQQKPGQAPRLLIYGASTRATGIPDRFSGSGSGTEFTLTISSLESEDFAVYYCQQYNNWPITFGQGTRLEIKRTVAAPSVFIFPPSDEQLKSGTASVVCLLNNFYPREAKVQWKVDNALQSGNSQESVTEQDSKDSTYSLSSTLTLSKADYEKHKVYACEVTHQGLSSPVTKSFNRGEC
For the molecule B3, the “TGI (%)” value is listed as 38.67% in data set [3] (10 mg/kg i.v.), 75.85* % in [13] (setting [17]), 64.14** % in data set [14] (VP25) and 91.02*** % in data set [15] (VP25). Also, the “VP42 (mm^3, mean±SEM)” value in data set [3] (10 mg/kg i.v.) was 875.71±114.43 mm^3. In addition, the “VP52(mm^3, mean±SEM)” value in data set [13] (setting [17]) is on record as 969.56±326.50 mm^3. In addition, the Hydrophobicity value in data set [7] worked out at 0.93. The entries for the “VP25(mm^3, mean±SEM)” value in data set [14] (tumor volume) and in data set [15] (tumor volume) were 1162.05±71.89 mm^3 and 299.18±87.93 mm^3, respectively.

B4: ADC 11 (conjugate)
heavy: QVQLQESGPGLVQPSGTLSLTCAVSGGSDSSTNWWTWVRQSPGQGLEWIGEISPIGFTSYSPSLRSRVTISVDKSKTQFSLKLSSVTAADTAVYYCARDRLYFAFWGQGTLVTVSSASTKGPSVFPLAPSSKSTSGGTAALGCLVKDYFPEPVTVSWNSGALTSGVHTFPAVLQSSGLYSLSSVVTVPSSSLGTQTYICNVNHKPSNTKVDKKV[human IgG1 Fc with L234A L235A G237A (EU numbers) left out here]
light: EIVMTQSPATLSVSPGERATLSCRASQSVSSNLAWYQQKPGQAPRLLIYGASTRATGIPDRFSGSGSGTEFTLTISSLESEDFAVYYCQQYNNWPITFGQGTRLEIKRTVAAPSVFIFPPSDEQLKSGTASVVCLLNNFYPREAKVQWKVDNALQSGNSQESVTEQDSKDSTYSLSSTLTLSKADYEKHKVYACEVTHQGLSSPVTKSFNRGEC
Take B4: in data set [3] (5 mg/kg i.v.), the “TGI (%)” value is given as 53.83* % and the “VP42 (mm^3, mean±SEM)” value was 688.71±105.48 mm^3. In [13] (5 mg/kg i.v. once (DAR8 group)), the “TGI (%)” value is 80.29* % and the “VP52(mm^3, mean±SEM)” value is listed as 819.27±346.44 mm^3. In addition, in data set [6] (Day 14, 3.16 mg/kg i.v.), the “T/C (%)” value was 29.12%, the “TGI (%)” value came out at 82.61% and the “Tumor volume (mm^3) (x±SEM)” value is given as 370.35±41.88 mm^3. Further, the Hydrophobicity value in data set [7] is recorded as 1.17.
